The source of these data is the antibiotic and cytotoxicity screens of Wong et al. (2023).

The list shows a part of the results.

In the experiment the test system is S. aureus RN4220. Nature of the experiment: growth inhibition call (relative growth <= 0.2). Particulars: 50 µM.
As to `CCCCSP(=O)(SCCCC)SCCCC`, the growth inhibition call was “inactive”.
As for `C/C=C(/C)C(=O)O[C@H]1CC[C@@]2(C)[C@@H]3CC[C@H]4[C@]5(O)C[C@H](O)[C@@]6(O)[C@@H](CN7C[C@@H](C)CC[C@H]7[C@@]6(C)O)[C@]5(O)C[C@@]42O[C@@]13O`, the entry is “inactive”; as for `C=C(C)[C@@H]1[C@H]2OC(=O)[C@H]1[C@]1(O)C[C@H]3O[C@]34C(=O)O[C@H]2[C@]14C`, “inactive”; as for `CN1C[C@H](C(=O)N[C@]2(C)O[C@@]3(O)[C@@H]4CCCN4C(=O)[C@H](Cc4ccccc4)N3C2=O)C[C@@H]2c3cccc4[nH]cc(c34)C[C@H]21`, “inactive”.
As for `CCNC(=O)[C@H]1O[C@@H](n2cnc3c(N)ncnc32)[C@H](O)[C@@H]1O`, the entry is “inactive”; as for `Cc1c(N)nc([C@H](CC(N)=O)NC[C@@H](N)C(N)=O)nc1C(=O)N[C@H](C(=O)N[C@@H](C)[C@H](O)[C@@H](C)C(=O)N[C@@H](C(=O)NCCc1nc(-c2nc(C(=O)NCCC[S+](C)C)cs2)cs1)[C@@H](C)O)[C@@H](O[C@H]1O[C@H](CO)[C@H](O)[C@@H](O)[C@H]1O[C@H]1O[C@H](CO)[C@@H](O)[C@H](OC(N)=O)[C@@H]1O)c1c[nH]cn1`, “inactive”.
In the case of `CC(C)(O)C(Cl)(Cl)Cl`, the growth inhibition call was “inactive”.
As for `COc1ccn(C)c(=O)c1C#N`, the entry is “inactive”; as for `C[C@H](CO)N1C[C@H](C)[C@H](CN(C)C(=O)Oc2ccc3ccccc3c2)OCc2cn(nn2)CCCC1=O`, “inactive”; as for `CC(=O)OC1CC2(C)C(c3ccoc3)CC3OC32C2(C)C(=O)C(O)=C3C(C)(C)C(=O)C=CC3(C)C12` (centres undefined), “inactive”.
The result for `Nc1nc(=O)c2ncn([C@H]3O[C@@H](COP(=O)(O)OP(O)(O)=S)[C@H](O)[C@@H]3O)c2[nH]1` reads “inactive”; that for `CC1=NCCN=C(C)C1N1CCOCC1`, “inactive”.
As to `NCCc1nc2ccccc2[nH]1`, the growth inhibition call was “inactive”.
On to `C[N+](C)(C)CC(=O)[O-].Cl`, for which the growth inhibition call is “inactive”.
With `CC[C@@H](C)[C@H]1NC(=O)C(C(C)=O)=C1O`, the growth inhibition call is “inactive”.
The result for `NC(=O)[C@H]1CNC(=O)C1` reads “inactive”; that for `CCOC(=O)CC(SP(=S)(OC)OC)C(=O)OCC` (centres undefined), “inactive”.
The result for `CN1[C@@H]2CC[C@@H]1C[C@H](O)C2` (some centres undefined) reads “inactive”; that for `COc1ccc(O)c(C(C)(C)C)c1`, “inactive”.
`Cc1cccc(N2CCNCC2)n1`: the growth inhibition call was “inactive”.
Consider `COc1ccc(OC(=O)N(C)C[C@H]2OCc3ccccc3-c3c(n(C)c4ccccc34)C(=O)N([C@H](C)CO)C[C@@H]2C)cc1`, for which the growth inhibition call is “inactive”.
The result for `Cc1cccc(CN2C[C@H]3OCCN(C)[C@H]3C2)n1` reads “inactive”; that for `CCN1C[C@]2(COC)CC[C@@H](OC)[C@@]34[C@@H]2[C@@H](OC)[C@@H]([C@@H]13)[C@]1(OC(C)=O)C[C@@H](OC)[C@@]2(O)C[C@H]4[C@@H]1[C@H]2OC(=O)c1ccc(OC)cc1`, “inactive”; that for `Cc1ccc2[nH]cc(C[C@@H](C)N)c2c1`, “inactive”.
As for `C[C@@H]1CN([C@@H](C)CO)C(=O)c2c(c3ccccc3n2C)-c2ccccc2CO[C@@H]1CN(C)C(=O)Oc1ccccc1`, the entry is “inactive”.
`NCc1cc(=O)[nH]o1`: the growth inhibition call was “inactive”.
In the case of `NC1(c2ccc(F)cc2)CCC1`, the growth inhibition call is “inactive”.
The result for `CCCCCCCCCCCCCCCC[N+](C)(C)C.[Br-]` reads “inactive”; that for `NC(=O)CN1CC(O)CC1=O` (centres undefined), “inactive”.
The result for `O=C(CN1CCOCC1)c1ccc(O)cc1O` reads “inactive”; that for `CN1[C@@H]2CC[C@H]1C[C@H](O)C2`, “inactive”; that for `N[C@]1(C(=O)O)CC[C@@H](C(=O)O)C1`, “inactive”.
The result for `c1csc(N2CCNCC2)n1` reads “inactive”; that for `COc1ccc(OC(=O)N(C)C[C@@H]2OCc3ccccc3-c3c(n(C)c4ccccc34)C(=O)N([C@@H](C)CO)C[C@H]2C)cc1`, “inactive”.
Take `CCC(N)C(O)c1ccc(O)c(O)c1.Cl` (centres undefined): the growth inhibition call was “inactive”.
As for `Cc1ccc2n[nH]c(CN)c2c1`, the entry is “inactive”; as for `CCC12C=CCN3CCC4(c5ccc(OC)cc5N(C)C4C(O)(C(=O)OC)C1OC(C)=O)C32` (centres undefined), “inactive”; as for `NC(=O)N1C[C@@H]2C[C@H]1CN2`, “inactive”.
The result for `CN(C)C1=NC(=O)C2(CCNCC2)N1` reads “inactive”.
